# This list was built around the results that the source calls inconclusive (neither active nor inactive); the mix of calls is not that of the screen. Potencies of inconclusive entries are left out as doubtful fits. Active and inactive are the calls of the source. Calls follow the shape of the dose curve; as a rule, active = well fitted cell-killing curve with a large enough effect; inconclusive = small, poorly fitted or top-dose-only effect; inactive = flat fitted curve, though single readings scatter.
# Assay: Cellular viability qHTS for adrenocortical cancer (ACC) cell line SW-13 (AID 1963989); also: nearly all actives have a fitted effect of over 65% in size;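 as to activity (max response): cells grown in serum-free medium with ITS supplement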
# Conditions: SW-13 ACC cells viability, CellTiter-Glo, 48 h; activity (max response): stronger effect = lower value
# Summary of the method: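 Viability was read as CellTiter-Glo luminescence after 48 h compound treatment (up to 46 uM final) of SW-13 cells grown serum-free; titration curves were fit with a four-parameter logistic model to give IC50 and efficacy.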
# % is scaled to controls: 0 for no effect and ±100 for the full control effect; potency is read from the fitted curve at half-maximal effect; tags tell the direction and shape of the fitted curve.
Compound,Potency,activity (max response)
C=CC(=O)N[C@H]1CCOC[C@H]1Nc1ncc2cc(-c3c(Cl)c(OC)cc(OC)c3Cl)ccc2n1,"inconclusive [cytotoxic, single point]",–
CCN1CCN(Cc2ccc(NC(=O)c3ccc(C)c(NC(=O)c4cncc(-c5cccs5)c4)c3)cc2C(F)(F)F)CC1,active: 2 µM,–
C=C1C(=C/C=C2\CCC[C@]3(C)[C@@H]([C@H](C)/C=C/[C@@H](O)C4CC4)CC[C@@H]23)C[C@@H](O)C[C@@H]1O,"inconclusive [cytotoxic, single point]",–
CCCCN(CCCC)CCCOC(=O)c1ccc(N)cc1,–,inactive: -3.65%
Cc1ncc(NC(=O)c2ccc(CN3CCN(C)CC3)c(C(F)(F)F)c2)cc1Nc1nccc(-c2cccnc2)n1,"inconclusive [cytotoxic, partial curve]",–
Cc1cc(O)c(-c2ccc([C@@H](C)CN(C)C)cc2)c2c1[nH]c(=O)c1sccc12,active: 0.0891 µM,–
COc1cc(C(=O)OCCCN2CCCN(CCCOC(=O)c3cc(OC)c(OC)c(OC)c3)CC2)cc(OC)c1OC,"inconclusive [cytotoxic, single point]",–
Cc1nc(-c2ccc(Cl)cc2)oc1COC(C)(C)C(=O)O,–,inactive: -4.84%
CN(C)CCCN1c2ccccc2Sc2ccc(C(F)(F)F)cc21,"inconclusive [cytotoxic, single point]",–
CC(C)n1cc(-c2ccc3c(c2)N(C)CC3)c2c(NS(=O)(=O)c3ccn(C)n3)ccnc21,–,inactive: 9.47%

# — PubChem BioAssay (NCATS)
